Consider two molecules from patent publication EP4663662A1 (Shanghai Qilu Pharmaceutical Research and Development …, dated 2025).

Read-outs that look alike come from different tables or passages of the source.

Test [1] has as its target T1, human GPRC5D (human, UniProt Q9NZD1 1-345).
T1 construct: On transfected CHOK1 cells; also called Human GPRC5D-CHOK1 cell line; Human GPRC5D CHOK1
Put plainly: flow cytometry, NCI-H929 cells.

For test [2], the target named is T1, human GPRC5D. Put plainly: flow cytometry, human GPRC5D-CHOK1 cells. On the technique in general: In flow cytometry, cells or beads pass a laser one at a time.
T1 sequence (Q9NZD1 whole entry): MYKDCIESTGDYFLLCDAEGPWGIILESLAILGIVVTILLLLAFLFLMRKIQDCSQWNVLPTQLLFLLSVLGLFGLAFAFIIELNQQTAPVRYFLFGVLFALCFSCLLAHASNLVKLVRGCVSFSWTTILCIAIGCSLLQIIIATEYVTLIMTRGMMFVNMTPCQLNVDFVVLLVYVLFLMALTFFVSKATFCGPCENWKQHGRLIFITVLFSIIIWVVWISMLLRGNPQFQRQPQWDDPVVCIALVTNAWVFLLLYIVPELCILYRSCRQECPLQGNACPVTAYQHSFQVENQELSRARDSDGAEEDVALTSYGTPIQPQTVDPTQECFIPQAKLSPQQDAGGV
Test [3] deals with T2, cynomolgus monkey GPRC5D (cynomolgus monkey, UniProt Q9NZD1 1-343 (human entry)).
T2 construct: On transfected CHOK1 cells; also called cyno-GPRC5D; Cynomolgus monkey GPRC5D-CHOK1 cell line
T2 chain: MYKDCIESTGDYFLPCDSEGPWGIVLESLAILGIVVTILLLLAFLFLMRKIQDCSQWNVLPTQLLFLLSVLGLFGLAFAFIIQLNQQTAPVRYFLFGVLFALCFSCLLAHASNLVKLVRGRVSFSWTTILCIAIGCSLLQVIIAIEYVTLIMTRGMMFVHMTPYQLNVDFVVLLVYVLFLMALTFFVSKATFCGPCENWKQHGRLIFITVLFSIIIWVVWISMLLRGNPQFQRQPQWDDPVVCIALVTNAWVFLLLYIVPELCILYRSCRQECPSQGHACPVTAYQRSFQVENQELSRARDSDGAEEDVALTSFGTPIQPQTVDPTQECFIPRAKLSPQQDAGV
Description: flow cytometry, cynomolgus GPRC5D-CHOK1 cells.

For test [4], the target named is T2, cynomolgus monkey GPRC5D. Put plainly: flow cytometry, cynomolgus GPRC5D-CHOK1 cells.

B1: HHC78 IgG1 (Fc fusion)
chain: QLQLVESGGGLVQPGGSLRLSCAGSGLFFASSDMSWFRQPPGKERELVAEITSVGNNIKYADSVEGRFTISRDNAKSTVYLQMNSLKPEDTAVYYCSARRRVRYWGQGTQVTVSSGGGGS[letters of human IgG1 Fc not shown]
notes: Heavy chain antibody: VHH - GGGGS - human IgG1 constant region; also called llama-derived anti-GPRC5D chimeric antibody; parent antibody
The EC50 is the concentration giving half of the maximal effect. With B1, the EC50 came out at 2.53 nM with human GPRC5D [1], 0.79 nM with human GPRC5D [2], 0.98 nM with cynomolgus monkey GPRC5D [3] and 9.22 nM with cynomolgus monkey GPRC5D [4].

B2: HHC78-H4 IgG1 (Fc fusion)
chain: QVQLVESGGGVVQPGGSLRLSCAASGLFFASSDMSWFRQAPGKGRELVAEITSVGNNIKYADSVEGRFTISRDNSKNTVYLQMNSLRAEDTAVYYCSARRRVRYWGQGTLVTVSSGGGGS[letters of human IgG1 Fc not shown]
notes: also called humanized llama-derived anti-GPRC5D antibody; GPRC5D VHH
As to B2, the 50% effective concentration (EC50) with human GPRC5D [1] is 1.18 nM; in the test with cynomolgus monkey GPRC5D [4] it was 8.68 nM.
